Where a name gives a salt, the structure may show the parent alone. ± gives the standard deviation of the averaged measurements. Over roughly 2,000 compounds, “relative cell viability vs DMSO, compound + 0.2 uM CuET” has its median near 1; the lowest 2% begin near 0.25. The list shows a part of the results.
System: TE10
Experiment: relative cell viability vs DMSO, compound + 0.2 uM CuET (fraction); TE10 is an esophageal squamous carcinoma line; higher = less cytotoxic
Conditions: 2 µM; co-treatment: CuET (bis(diethyldithiocarbamate)copper) 0.2 uM; 48 h
Description: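 TE10 ESCC cells (1,000/well, 384-well plates) were treated with Selleck bioactive library compounds at 2 uM combined with 0.2 uM CuET (copper diethyldithiocarbamate) for 48 h. Viability was read by CellTiter-Glo and expressed relative to DMSO wells. Two technical replicates (A, B).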

| Compound | relative cell viability |
| --- | --- |
| CCC(=O)OCC(=O)[C@@]1(OC(=O)CC)[C@@H](C)C[C@H]2[C@@H]3CCC4=CC(=O)C=C[C@]4(C)[C@@]3(Cl)[C@@H](O)C[C@@]21C [Beclomethasone dipropionate] | 1 ± 0.083 |
| O=c1c2ccccc2nc2n1CCc1c-2[nH]c2ccccc12 [Rutaecarpine] | 0.989 ± 0.033 |
| O=C(/C=C/C=C/c1ccc2c(c1)OCO2)N1CCCCC1 [Piperine] | 1.11 ± 0.046 |
| O=C(O)C(S)=Cc1c[nH]c2ccc(F)cc12 | 1.3349 ± 0.00087 |
| C[C@H]1Oc2cc(cnc2N)-c2c(nn(C)c2C#N)CN(C)C(=O)c2ccc(F)cc21 | 1.02 ± 0.11 |
| C[C@@]1(c2cc(-c3cncnc3)c(F)cc2F)CCSC(N)=N1 | 0.857 ± 0.14 |
| CCc1cnn2c(NCc3ccc[n+]([O-])c3)cc(N3CCCC[C@H]3CCO)nc12 | 0.842 ± 0.12 |
| O=C1NC(=O)[C@@H](c2cn3c4c(cccc24)CCC3)[C@@H]1c1c[nH]c2ccccc12 [Tivantinib (ARQ 197)] | 0.834 ± 0.012 |
| Cc1cc(C)c(CNC(=O)c2cc(-c3ccc(N4CCN(C)CC4)nc3)cc3c2c(C)cn3C(C)C)c(=O)[nH]1 | 1.22 ± 0.035 |
| CC(C)(C(=O)NCC(F)(F)C(F)(F)F)C(=O)N[C@@H]1C(=O)Nc2ccccc2-c2ccccc21 | 0.895 ± 0.023 |
| O=C1OC(CN2CCOCC2)CN1/N=C/c1ccc([N+](=O)[O-])o1 (stereo not drawn) [Furaltadone HCl] | 1.47 ± 0.051 |
| Cc1ccc(-c2c(-c3nn(C)c4ncnc(N5CC[C@H](N6CCCCC6)C5)c34)cnn2C)cc1 | 1.04 ± 0.056 |
| O=C1c2c(O)cc(O)cc2O[C@H](c2cc(O)c(O)c(O)c2)[C@H]1O [Dihydromyricetin] | 0.916 ± 0.058 |
| C[C@H]1[C@H](OC(=O)CCC(=O)O)O[C@@H]2O[C@@]3(C)CC[C@H]4[C@H](C)CC[C@@H]1[C@@]24OO3 [Artesunate] | 1.06 ± 0.054 |
| CC(NC(=O)Cc1cc(F)cc(F)c1)C(=O)NC1C(=O)N(C)c2ccccc2-c2ccccc21 (stereo not drawn) | 0.97 ± 0.13 |
| CCC(C)n1ncn(-c2ccc(N3CCN(c4ccc(OCC5COC(Cn6cncn6)(c6ccc(Cl)cc6Cl)O5)cc4)CC3)cc2)c1=O (stereo not drawn) [Itraconazole] | 1.125 ± 0.0015 |
| Cc1cccc(Nc2ccccc2C(=O)O)c1C [Mefenamic Acid] | 0.933 ± 0.11 |
| COC(=O)[C@H](CCSC)NC(=O)c1ccc(NC[C@@H](N)CS)cc1-c1ccccc1 | 1.04 ± 0.17 |
| CCOc1cc(N)c(Cl)cc1C(=O)NCC1CN(Cc2ccc(F)cc2)CCO1 (stereo not drawn) [Mosapride Citrate] | 0.865 ± 0.25 |
| CCCCc1nc(Cl)c(CO)n1Cc1ccc(-c2ccccc2-c2nnn[nH]2)cc1 [Losartan Potassium (DuP 753)] | 1.12 ± 0.086 |
| CC1(C)S[C@@H]2[C@H](NC(=O)Cc3ccccc3)C(=O)N2[C@H]1C(=O)O [Penicillin G Sodium] | 1.07 ± 0.13 |
| Clc1ccc(C(Cn2ccnc2)OCc2csc3c(Cl)cccc23)c(Cl)c1 (stereo not drawn) [Sertaconazole nitrate] | 0.803 ± 0.1 |
| C=CCn1c(=O)c2cnc(Nc3ccc(N4CCN(C)CC4)cc3)nc2n1-c1cccc(C(C)(C)O)n1 | 0.559 ± 0.038 |
| c1cn2cc(-c3ccc4cn[nH]c4c3)nc(Nc3ccc(N4CCOCC4)cc3)c2n1 | 0.346 ± 0.11 |
| O=C1CCC(N2C(=O)c3ccccc3C2=O)C(=O)N1 (stereo not drawn) [Thalidomide] | 1.14 ± 0.068 |
| CCCCCCCCCCCC1=C(O)C(=O)C=C(O)C1=O [Embelin] | 0.8707 ± 0.0031 |

| Compound | relative cell viability |
| --- | --- |
| COc1c2ccoc2cc2oc(=O)ccc12 [Bergapten] | 1.12 ± 0.038 |
| O=C1CCc2ccc(OCCCCN3CCN(c4cccc(Cl)c4Cl)CC3)cc2N1 [Aripiprazole] | 1.02 ± 0.04 |
| Cc1nn(C)c2c1C(c1ccc(C(F)(F)F)cc1)C(C#N)=C(N)O2 (stereo not drawn) | 1.1 ± 0.12 |
| Cc1ccccc1C(OCCN(C)C)c1ccccc1 (stereo not drawn) [Orphenadrine Citrate] | 1.12 ± 0.056 |
| CNCc1cc(-c2ccccc2F)n(S(=O)(=O)c2cccnc2)c1 | 1.19 ± 0.077 |
| Cc1cc(-c2ccc(CC(=O)Nc3ccc(-c4cccnc4)cc3)cc2)ccn1 | 1 ± 0.038 |
| COc1ccc(C2CC(c3ccccc3)=NN2c2ccc(S(N)(=O)=O)cc2)cc1 (stereo not drawn) | 1.07 ± 0.081 |
| Cc1cc(Nc2cc(N3CCN(C)CC3)nc(/C=C/c3ccccc3)n2)n[nH]1 | 0.867 ± 0.015 |
| Cc1cc(Nc2cc(N3CCN(C)CC3)nc(/C=C/c3ccccc3)n2)n[nH]1 [ENMD-2076 L-(+)-Tartaric acid] | 0.9018 ± 0.0077 |
| COCCOc1ccc2c(c1)ncn2-c1ccc2cccc(N3CCC(N)CC3)c2n1 | 0.742 ± 0.079 |
| Cc1nc(C#Cc2ccnc(Cl)c2)c(C)n1-c1ccc(OC(F)(F)F)cc1 | 1.15 ± 0.14 |
| COC(=O)C1=C(C)NC(C)=C(C(=O)OCCN(C)Cc2ccccc2)C1c1cccc([N+](=O)[O-])c1 (stereo not drawn) [Nicardipine HCl] | 0.979 ± 0.011 |
| CN(C)c1cccc(-c2c3c(=O)n(-c4ccccc4Cl)[nH]c3cc(=O)n2C)c1 | 1.18 ± 0.065 |
| OC[C@H]1O[C@@H](c2ccc(Cl)c(Cc3ccc(O[C@H]4CCOC4)cc3)c2)[C@H](O)[C@@H](O)[C@@H]1O | 1.02 ± 0.021 |
| Cn1cc(-c2[nH]c3cc(NC(=O)[C@H](N)C4CCCCC4)cc4c3c2C=NNC4=O)cn1 | 0.702 ± 0.016 |
| CC[C@@H]1/C=C(\C)C[C@H](C)C[C@H](OC)[C@H]2O[C@@](O)(C(=O)C(=O)N3CCCC[C@H]3C(=O)O[C@H](/C(C)=C/[C@@H]3CC[C@@H](O)[C@H](OC)C3)[C@H](C)[C@@H](O)CC1=O)[C@H](C)C[C@@H]2OC [Ascomycin (FK520)] | 1.36 ± 0.042 |
| CC1(C)CNc2cc(NC(=O)c3cccnc3NCc3ccncc3)ccc21 [Motesanib Diphosphate (AMG-706)] | 1.11 ± 0.049 |
| O=C1Cc2c([nH]c3ccc(Br)cc23)-c2ncccc2N1 [1-Azakenpaullone] | 1.17 ± 0.11 |
| Oc1cc(O)c(Cl)cn1 [Gimeracil] | 1.15 ± 0.11 |
| COC(=O)C1=C(C)NC(C)=C(C(=O)OCC(C)C)C1c1ccccc1[N+](=O)[O-] (stereo not drawn) [Nisoldipine] | 0.566 ± 0.051 |
| Nc1ncnc2c1C(=O)N(c1ccc([C@H]3CC[C@H](CC(=O)O)CC3)cc1)CCO2 | 1.09 ± 0.052 |
| CCN1C(=CC(C)=O)Sc2ccc(OC)cc21 | 1.11 ± 0.11 |
| O=C1[C@H](CC[C@H](O)c2ccc(F)cc2)[C@@H](c2ccc(O)cc2)N1c1ccc(F)cc1 [Ezetimibe] | 0.9647 ± 0.0012 |
| Cc1cnc(C(=O)NCCc2ccc(S(=O)(=O)NC(=O)NC3CCCCC3)cc2)cn1 [Glipizide] | 1.035 ± 0.0064 |
| Cc1cc(-c2ncc(CC(=O)Nc3ccc(-c4cnccn4)cn3)cc2C)ccn1 | 0.9822 ± 0.002 |
| COC(=O)CC(NC(=O)C(C)NC(=O)C(NC(=O)OCc1ccccc1)C(C)C)C(=O)CF (stereo not drawn) | 1.3 ± 0.057 |

| Compound | relative cell viability |
| --- | --- |
| CN1CCC(NC(=O)c2cc(-c3c(O)cc(O)cc3Oc3ccc([N+](=O)[O-])cc3)on2)CC1 | 0.6427 ± 0.0019 |
| CN1CCC(=C2c3ccccc3CCc3sccc32)CC1 [Pizotifen Malate] | 1.07 ± 0.2 |
| COc1cc2ncnc(Oc3ccc(CC(=O)Nc4cnn(C(C)C)c4)cc3)c2cc1OC | 1.17 ± 0.034 |
| COc1ncc(-c2ccc3nccc(-c4ccnnc4)c3c2)cc1NS(=O)(=O)c1ccc(F)cc1F | 0.586 ± 0.032 |
| CCCCNc1ccc(C(=O)OCCN(C)C)cc1 [Tetracaine HCl] | 1.37 ± 0.12 |
| CCCCC(=O)N(Cc1ccc(-c2ccccc2-c2nn[nH]n2)cc1)C(C(=O)O)C(C)C.CCOC(=O)C(C)CC(Cc1ccc(-c2ccccc2)cc1)NC(=O)CCC(=O)O (stereo not drawn) | 1.11 ± 0.11 |
| COc1ccc2cc(-c3nc(-c4ccc([S+](C)[O-])cc4)[nH]c3-c3ccncc3)ccc2c1 (stereo not drawn) [Tie2 kinase inhibitor] | 1.11 ± 0.035 |
| CCCCCOC(=O)Nc1nc(=O)n([C@@H]2O[C@H](C)[C@@H](O)[C@H]2O)cc1F [Capecitabine] | 1.35 ± 0.15 |
| CCN(CC)CCOc1ccc(C(=C(Cl)c2ccccc2)c2ccccc2)cc1 [Clomifene citrate] | 1.04 ± 0.036 |
| O=c1c(O)c(-c2ccc(O)c(O)c2)oc2cc(O)cc(O)c12 [Quercetin] | 0.973 ± 0.059 |
| O=c1c(O)c(-c2ccc(O)c(O)c2)oc2cc(O)cc(O)c12 [Quercetin Dihydrate] | 0.846 ± 0.035 |
| O=C(Nc1ccc([N+](=O)[O-])cc1O)Nc1ccccc1Br | 0.845 ± 0.06 |
| O=C(c1cncc(Br)c1)N1CCC(N2CCCC2)CC1 | 1.1 ± 0.081 |
| Cc1cnc(C(=O)O)c[n+]1[O-] [Acipimox] | 1.07 ± 0.063 |
| O=C(O)c1cc(I)ccc1NC(=O)[C@H](Cc1ccccc1)NCc1ccccc1 | 1.06 ± 0.07 |
| COCCc1ccc(OCC(O)CNC(C)C)cc1 (stereo not drawn) [Metoprolol Tartrate] | 1.18 ± 0.062 |
| CCN1CCN(Cc2ccc(Nc3ncc(F)c(-c4cc(F)c5nc(C)n(C(C)C)c5c4)n3)nc2)CC1 | 0.888 ± 0.011 |
| CC(C)Cc1ccc(C(C)C(=O)O)cc1 (stereo not drawn) [Ibuprofen] | 1.15 ± 0.013 |
| COc1ccc(CN2CCN(C(c3ccc(F)cc3)c3ccc(F)cc3)CC2)c(OC)c1OC [Lomerizine HCl] | 0.824 ± 0.13 |
| O=C(O)c1ccccc1 [Benzoic Acid] | 1.1 ± 0.072 |
| CC[C@@H]([C@H](C)O)n1ncn(-c2ccc(N3CCN(c4ccc(OC[C@@H]5CO[C@@](Cn6cncn6)(c6ccc(F)cc6F)C5)cc4)CC3)cc2)c1=O [Posaconazole] | 1.15 ± 0.27 |
| COC(=O)[C@]12CCC(C)(C)C[C@H]1[C@H]1C(=O)C=C3[C@@]4(C)C=C(C#N)C(=O)C(C)(C)[C@@H]4CC[C@@]3(C)[C@]1(C)CC2 [Bardoxolone Methyl] | 0.476 ± 0.031 |
| NC1=N[C@@](c2cccc(-c3cncnc3)c2)(c2ccnc(C(F)F)c2)c2cccc(F)c21 | 1.25 ± 0.079 |
| CCCCC[C@H](O)/C=C/[C@H]1[C@H](O)CC(=O)[C@@H]1CCCCCCC(=O)O [Alprostadil] | 1.06 ± 0.14 |
| CC(C(=O)O)c1ccc(C(=O)c2cccs2)cc1 (stereo not drawn) [Suprofen] | 0.939 ± 0.055 |
| CN1CCN(c2nc(C3=C(c4c[nH]c5ccccc45)C(=O)NC3=O)c3ccccc3n2)CC1 [Sotrastaurin] | 0.919 ± 0.045 |
